# Screen size: about 73,000 compounds; about 1,800 (2.5%) were called active. Inconclusive results, whose numbers are uncertain, are shown with a selection of clear calls. Calls come from the whole dose curve; as a rule, active = well fitted activation curve with a large enough effect; inconclusive = small, poorly fitted or top-dose-only effect; inactive = no such curve, though single readings can be large or run the other way. No potency is given beside an inconclusive call; the fits are too rough.
# Test: qHTS Assay for Agonists of the Thyroid Stimulating Hormone Receptor: Activators of Intracellular cAMP Concentrations in Parental HEK 293; note: nearly all actives have a fitted effect of over 55% in size; for activation: % of control where 0% means no effect
# Conditions: parental HEK293 CNG cAMP sensor, membrane potential fluorescence; activation: at 57.1 µM (top of the series) unless noted
# Method in brief: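 Counterscreen for endogenous-receptor signalling: CNG-channel HEK 293 cells report cAMP rise by membrane depolarization. After 60 min dye equilibration with 100 uM RO 20-1724, compounds incubated 30 min before bottom-read fluorescence at 590 nm.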
# Potency is the fitted concentration of half-maximal effect; tags give direction and shape of the fitted curve.
SMILES,Potency,activation
Cc1cc(C(=O)O)ccc1[N+](=O)[O-],"inconclusive [activator, single point]",–
CCCCn1c(N)c(N(CCC(C)C)C(=O)CSc2nnc3ccccn23)c(=O)[nH]c1=O,"inconclusive [activator, single point]",–
Cc1nn2c3ccccc3nc2c2ccccc12,"inconclusive [activator, partial curve]",–
CCc1nnc(NC(=O)c2ccc(-c3cccc(C(F)(F)F)c3)o2)s1,–,inactive: -3.53%
c1ccc2c(c1)nnn2-c1ncnc2sc3c(c12)CCCC3,"inconclusive [activator, single point]",–
Fc1ccc(Cn2nnnc2C(c2cccs2)N2CCCCCC2)cc1 (stereo not given),active: 31.6 µM,–
COc1ccc2[nH]c(=O)c(CN(C(C)=O)c3cccc(C)c3)cc2c1,–,inactive: 7.43%
N#Cc1cn(-c2ccccc2)nc1-c1ccc2c(c1)OCCO2,"inconclusive [activator, single point]",–
CO[C@H]1COC(=O)CCC[C@@H](C)[C@H](OC)COC(=O)[C@H]2CCCN2C(=O)C/C=C\[C@@H]1C,–,inactive: 4.4% [at 11.4 µM]
CC(=O)Nc1cccc(NC(=O)C2CC(=O)N(c3ccc(C)cc3)C2)c1 (stereo not given),–,inactive: -7.78%
CCOC(=O)C1(Cc2ccccc2)NC(c2ccccc2F)C2C(=O)N(CC)C(=O)C21 (stereo not given),"inconclusive [activator, partial curve]",–
CC(C)CCN(C)C1CCN(S(=O)(=O)c2ccc(F)cc2)CC1,"inconclusive [activator, single point]",–
CC(=O)N1CCN(c2ccc(NCc3ccccc3)cc2)CC1,–,inactive: -10.2%
COc1ccccc1NC(=O)CSc1nnc(-c2ccccn2)n1Cc1ccco1,–,inactive: -8.2%
COC(=O)c1ccc(C(NC(=O)OCc2ccccc2)/C(=C/[C@@H](C)C(=O)N(C)C)c2cccnc2)cc1 (stereo not given in full),–,inactive: -0.0421%
CCc1ccc(NC(=O)c2ccc3c(c2)C(=O)N(Cc2ccco2)C3=O)cc1,"inconclusive [activator, single point]",–
CCCCNc1cc(C(=O)O)cc(S(N)(=O)=O)c1Oc1ccccc1,"inconclusive [activator, partial curve]",–
CCC/C=C(\CCC)C(NS(=O)(=O)c1ccccc1)c1ccc(C(F)(F)F)cc1 (stereo not given),"inconclusive [activator, partial curve]",–
COC(=O)Cc1ccc2c3ccccc3n(C)c2c1,"inconclusive [activator, partial curve]",–
O=C(CSc1nc2c(cnn2-c2ccccc2)c(=O)[nH]1)c1ccc(Cl)cc1,"inconclusive [activator, single point]",–

# — PubChem BioAssay AID938 (National Center for Advancing Translational Sciences (NCATS), 2007)
